In PubChem BioAssay AID485294 (National Center for Advancing Translational Sciences (NCATS), 2010):
Screen size: about 370,000 compounds; about 150 (0.041%) were called active. This list was built around the results that the source calls inconclusive (neither active nor inactive); the mix of calls is not that of the screen. Calls follow the shape of the dose curve; as a rule, active = well fitted inhibition curve with a large enough effect; inconclusive = small, poorly fitted or top-dose-only effect; inactive = flat fitted curve, though single readings scatter. Potencies of inconclusive entries are left out as doubtful fits.
Also: nearly all actives have a fitted effect of over 25% in size.
Potency is read from the fitted curve at half-maximal effect; tags tell the direction and shape of the fitted curve.

The compounds below were run against Beta-lactamase (Escherichia coli (strain K12)) (UniProt P00811) (assay: qHTS Inhibitors of AmpC Beta-Lactamase (assay with detergent)). Details: AmpC hydrolysis of nitrocefin, absorbance 480 nm, 0.01% Triton; series mostly up to 114 µM.
Sequence of UniProt P00811 (P00811 whole entry, looked up): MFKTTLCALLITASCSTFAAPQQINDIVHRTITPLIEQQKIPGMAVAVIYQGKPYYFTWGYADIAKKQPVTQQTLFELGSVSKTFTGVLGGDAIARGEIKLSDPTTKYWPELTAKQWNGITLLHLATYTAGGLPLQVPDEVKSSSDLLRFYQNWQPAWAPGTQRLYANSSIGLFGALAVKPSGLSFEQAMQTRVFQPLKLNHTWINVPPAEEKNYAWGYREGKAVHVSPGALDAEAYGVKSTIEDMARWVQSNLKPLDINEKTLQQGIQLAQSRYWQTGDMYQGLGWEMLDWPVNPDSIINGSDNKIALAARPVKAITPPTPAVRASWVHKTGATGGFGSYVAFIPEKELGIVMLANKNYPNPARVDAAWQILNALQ
Procedure, shortened: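 20 mM phosphate pH 7.0 + 0.01% (detergent screen) or 0.0001% Triton X-100; 5.3 nM AmpC reagent; cpd preinc 15 min RT; nitrocefin (800 uM stock) to start; A480 q20 s × 4 min; Activity was normalised to no-enzyme and no-compound control wells.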
For `O=c1c(Cc2c(F)cccc2Cl)c(O)ccn1CCc1c[nH]c2ccccc12`, the Potency was inconclusive [inhibitor, full curve, poor fit].
With `Cc1ccccc1Nc1nc(N)nc(COC(=O)[C@@H](NC(=O)c2ccccc2Cl)C(C)C)n1` the Potency was inconclusive [inhibitor, partial curve, poor fit].
For `COc1ccc(Nc2c3c(nc4ccc(NC(=O)c5cc(Cl)ccc5OC)cc24)CCCC3)cc1OC`, the Potency was “inactive”.
With `N#Cc1ccc(C(=O)Nc2cccc3ccccc23)c(F)c1` the Potency was inconclusive [inhibitor, single point].
For `Cc1ccc(-c2cc(C(=O)N/N=C/c3ccc(F)cc3)n[nH]2)o1`, the Potency was “inactive”.
With `CCSc1nnc2ccc(-c3cccs3)nn12` the Potency was inconclusive [inhibitor, full curve, poor fit].
In the case of `COc1ccc(N=C2SC(C(=O)Nc3ccc(C(=O)O)cc3)CC(=O)N2Cc2cccs2)cc1` (centres undefined), the Potency is reported as “inactive”.
With `CCN(CC)C(=O)C1CCCN(Cc2ccc(N(C)C)cc2)C1` (centres undefined) the Potency was inconclusive [inhibitor, full curve].
For `Cc1c(C)c2ccc(OC3CCCCC3=O)cc2oc1=O` (centres undefined), the Potency was inconclusive [inhibitor, full curve, poor fit].
`Nc1nc(COc2ccc(Cl)cc2)cs1` was tested, and the Potency was inconclusive [inhibitor, full curve, poor fit].
`CCOC(=O)c1[nH]c2ccc(OC)cc2c1NC(=O)CCN1CCN(Cc2ccccc2)CC1` was tested, and the Potency was inconclusive [inhibitor, partial curve].
In the case of `CC(=O)Nc1ccc(C(=O)OC2CCCCC2=O)cc1` (centres undefined), the Potency is reported as inconclusive [inhibitor, full curve, poor fit].
`O=C(CN1CCN(CC(=O)Nc2ccccc2Cc2ccccc2)CC1)Nc1ccccc1Cl` was tested, and the Potency was “inactive”.
With `CCOC(=O)c1oc2ccc(S(=O)(=O)N3CCOCC3)cc2c1C` the Potency was “inactive”.
For `COc1ccc2nc(NC(=O)C3COc4ccccc4O3)sc2c1` (centres undefined), the Potency was “inactive”.
For `CC(C)C(=O)N1CCN(C2=NS(=O)(=O)c3ccccc32)CC1`, the Potency was inconclusive [inhibitor, full curve, poor fit].
For `Cc1cccc(N(CC(=O)N(C)Cc2ccccc2)S(=O)(=O)c2ccccc2)c1C`, the Potency was “inactive”.
In the case of `O=C(Nc1nc2ccccc2s1)c1ccc(Cl)s1`, the Potency is reported as inconclusive [inhibitor, full curve, poor fit].
`CCOC(=O)C(=O)Nc1nnc(SCc2ccc(F)cc2)s1` was tested, and the Potency was inconclusive [inhibitor, partial curve, poor fit].
